Test results from PMC4336329 (PLoS ONE, 2015).
The whole screen tested about 310,000 compounds, of which about 2,200 (0.71%) showed an effect of 50% or more. The effect is printed as a negative number. The list shows a part of the results.

These compounds were tested against human ether-à-go-go-related gene (hERG) potassium channel (human, UniProt Q12809) (assay: primary screen, population patch clamp on CHO cells stably expressing hERG).
human ether-à-go-go-related gene (hERG) potassium channel, sequence (Q12809 whole entry, looked up): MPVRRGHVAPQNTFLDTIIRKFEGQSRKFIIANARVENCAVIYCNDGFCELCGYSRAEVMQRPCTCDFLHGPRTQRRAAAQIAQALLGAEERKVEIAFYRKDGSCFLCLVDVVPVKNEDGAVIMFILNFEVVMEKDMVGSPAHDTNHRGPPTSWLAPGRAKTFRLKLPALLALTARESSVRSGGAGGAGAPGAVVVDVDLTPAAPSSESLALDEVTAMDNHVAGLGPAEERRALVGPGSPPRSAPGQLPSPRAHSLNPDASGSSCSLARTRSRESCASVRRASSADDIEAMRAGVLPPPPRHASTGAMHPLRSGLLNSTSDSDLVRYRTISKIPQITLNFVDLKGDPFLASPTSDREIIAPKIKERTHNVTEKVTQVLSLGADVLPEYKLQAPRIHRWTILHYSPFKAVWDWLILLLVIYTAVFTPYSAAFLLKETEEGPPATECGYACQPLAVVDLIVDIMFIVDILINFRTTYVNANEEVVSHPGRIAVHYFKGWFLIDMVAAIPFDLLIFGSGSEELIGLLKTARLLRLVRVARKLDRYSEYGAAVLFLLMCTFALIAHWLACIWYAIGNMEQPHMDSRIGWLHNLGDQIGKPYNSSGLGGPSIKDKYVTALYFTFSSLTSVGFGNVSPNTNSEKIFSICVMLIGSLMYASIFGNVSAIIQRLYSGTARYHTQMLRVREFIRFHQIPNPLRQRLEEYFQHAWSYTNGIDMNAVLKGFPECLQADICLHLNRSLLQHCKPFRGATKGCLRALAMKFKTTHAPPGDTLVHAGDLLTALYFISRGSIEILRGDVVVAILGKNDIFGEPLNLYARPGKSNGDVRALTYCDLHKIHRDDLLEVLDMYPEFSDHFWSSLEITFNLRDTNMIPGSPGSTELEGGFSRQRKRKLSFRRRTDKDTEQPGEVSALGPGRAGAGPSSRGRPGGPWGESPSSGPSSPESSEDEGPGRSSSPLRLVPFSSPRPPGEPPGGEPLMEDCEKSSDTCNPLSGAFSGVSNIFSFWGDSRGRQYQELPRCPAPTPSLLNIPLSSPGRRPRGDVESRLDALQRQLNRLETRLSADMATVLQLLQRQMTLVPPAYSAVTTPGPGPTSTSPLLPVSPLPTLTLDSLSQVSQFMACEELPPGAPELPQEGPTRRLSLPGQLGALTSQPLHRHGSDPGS

Row | SMILES | hERG current change (%, negative = inhibition) at 1uM [%]
1 | O=C(NC1CCCc2c1cnn2-c1cc(F)cc(F)c1)c1ccncc1 (stereo not shown) | -25.3
2 | COc1ccc(-c2nc3ccccc3c(=O)n2CCCN2CCOCC2)cc1 | 9.84
3 | COc1ccc(-c2nc(N)nc(C)c2-c2ccc(Cl)cc2)c(O)c1 | 18.2
4 | CC1CC1C(=O)Nc1ccc(-c2ccccc2)cc1 (stereo not shown) | 10
5 | C=C1CCN(CC(=O)OC)S(=O)(=O)c2ccccc21 | 10.9
6 | CCCc1nnc(NC(=O)CCC(=O)N2CCC3(CC2)OCCO3)s1 | 11.3
7 | CC1(C)NS(=O)(=O)Oc2ccccc21 | 18.6
8 | Cl.NCCNc1ccc([N+](=O)[O-])cc1 | 1.2
9 | Cc1c(N=C2NN=C(c3c[nH]c4ccccc34)CS2)c(=O)n(-c2ccccc2)n1C | 9.41
10 | COc1ccc(C2/C=C\CN(CC(C)(C)C)CC(=O)N2Cc2ccc(F)cc2)cc1 (stereo not shown) | 17
11 | COc1cccc(NC(=O)CCc2nc(-c3cccs3)no2)c1 | 13.6
12 | Cc1ccc(C(=O)NCCCn2ccnc2)o1 | 24.9
13 | Cc1cc(OCC(=O)c2cccc(C(F)(F)F)c2)n2cnnc2n1 | -4.84
14 | COc1ccccc1N1CCN(C2CCN(C(=O)c3cccs3)CC2)CC1 | 0.796
15 | COC(=O)CC1C(=O)NCCN1C(=S)Nc1cccc(C(F)(F)F)c1 (stereo not shown) | 4.72
16 | Cc1ccccc1OC1C(=O)N(CC2CCCO2)C1c1ccc2c(c1)OCO2 (stereo not shown) | 11.7
17 | N#Cc1c(-c2ccccc2)ccn(Cc2ccccc2Cl)c1=O | 0.439
18 | CCOC1=NN(c2ncc(C(F)(F)F)cc2Cl)C(=O)C1 | 8.65
19 | FC(F)(F)c1cccc(N2CCN(c3ccc4nnc(-c5ccccc5)n4n3)CC2)c1 | -13.4
20 | C=C1C[C@H](O)[C@@H]2[C@H](OC(=O)[C@H]2C)[C@H]2[C@H](C)[C@@H](O)C[C@@H]12 | 12.9

Row | SMILES | hERG current change (%, negative = inhibition) at 1uM [%]
21 | CCOCCOCCC(C(=O)O)P(=O)(c1ccccc1)c1ccccc1 (stereo not shown) | -8.93
22 | CSc1ccc(CNC2CC2)cc1.Cl | -0.741
23 | CCN(CC)C(=O)c1ccccc1NC(=O)c1cccc(S(=O)(=O)N(CC)CC)c1 | 5.09
24 | Cl.Fc1ccc(C(OCCN2CCCC2)c2ccc(Br)cc2)cc1 (stereo not shown) | -66
25 | CCc1cccc(N=c2c([N+](=O)[O-])nn(-c3ccc(Cl)cc3)n2O)c1 | 1.94
26 | Cc1ccc(S(=O)(=O)N2CCN(C(C)C)CC2)cc1 | 16.2
27 | O=C(c1ccc(CNS(=O)(=O)c2ccc(Br)cc2)cc1)N1CCCCCC1 | 18.1
28 | O=C(CN(Cc1ccc2c(c1)OCO2)C(=O)CNC(=O)c1ccco1)NC1CCCCC1 | 7.03
29 | CN(C)CCCNC(=S)NCc1ccc(Cl)cc1 | -3.81
30 | CC(=O)Nc1ccc(/C=N/NC(=O)c2cc3cc(C)ccc3nc2C)cc1 | 5.12
31 | CCN(CC)S(=O)(=O)c1ccc(N2CCCC2)c(C(=O)Nc2ccc(OC)c(Cl)c2)c1 | 11.3
32 | CCOC(=O)c1sc(C)c2c1NC1(CCCCCC1)NC2=O | 5.81
33 | NC(=O)CN1CCCC1c1ccc2c(c1)OCCO2 (stereo not shown) | 7.17
34 | O=C(Nc1ccc(F)cc1)c1cccc(C(=O)Nc2ccc(F)cc2)c1 | -4.92
35 | CC(C)(C)c1ccc(/C=N/NC(=O)c2ccccn2)cc1 | 3.78
36 | COc1ccc(C)c2sc(NC(=O)c3cccc(N4C(=O)CCC4=O)c3)nc12 | -3.29
37 | Cn1c(=O)nc2n(Cc3ccccc3)c3cccc(Cl)c3cc-2c1=O | 7.14
38 | Cc1nnc(SCSc2nnc(C)s2)s1 | 11.1
39 | CN(C)c1ccc(/C=N/OC(=O)Nc2ccccc2)cc1 | 11.8
40 | O=C(O)CCc1ccc(-c2cccs2)n1CCc1ccccc1 | 10.7

Row | SMILES | hERG current change (%, negative = inhibition) at 1uM [%]
41 | CN(C)c1ccc(C(=O)OCC(=O)NC2CCCCCC2)cc1 | 0.405
42 | Cc1nc2ccc(NC(=O)COc3cccc(F)c3)cc2s1 | 24.2
43 | Cc1ccc(CSC2=NCCN2C(=O)c2ccc(S(=O)(=O)N(C)C)cc2)cc1 | 5.25
44 | C#CCNC(=O)C1=C[C@H](C2CC2)C[C@H](OCCCCO)O1 | -1.18
45 | COc1ccc(N2CCN(C(C)C(=O)Nc3nnc(C)s3)CC2)cc1.Cl (stereo not shown) | 16.4
46 | CC(=O)NC(N(C#N)c1nc(Cl)nc(N(C)C)n1)C(Cl)(Cl)Cl (stereo not shown) | 12.7
47 | O=C(COc1ccc(Cl)cc1)Nc1cnn(Cc2c(Cl)cccc2Cl)c1 | 16.6
48 | COc1ccc(CN2CCN(C(=O)c3cccc4ccccc34)CC2)c(OC)c1OC.O=C(O)C(=O)O | 17.6
49 | COc1ccc(C(=O)NC2CCN(CC(=O)Nc3cccc(OC)c3)CC2)cc1 | -1.73
50 | COc1cccc(/C=N/NC(=O)CNC(=O)c2ccc3c(c2)OCCO3)c1O | 7.07
51 | COc1ccccc1NC(=S)N1CCC(NC(=O)c2ccco2)CC1 | 4.32
52 | Cc1ccc(OC/C(=N\O)C(C)(C)C)c([N+](=O)[O-])c1 | 13.1
53 | O=C(Nc1ccc(Cl)cc1)c1ccc(-c2ccccn2)s1 | 5.06
54 | NC(=O)NC(CC(=O)Nc1cccnc1)c1cccc(Br)c1 (stereo not shown) | 12.3
55 | CCCCCCn1c(=O)c(Cc2ccccc2)c(O)c2ccccc21 | 8.47
56 | Cc1ccc(OCc2nc(-c3ccccn3)n[nH]2)cc1 | 1.54
57 | Cc1ccc(CSCc2nnc(SCC(=O)N3CCN(c4ccccc4)CC3)n2C)cc1 | -22.4
58 | CCn1c2ccccc2c2cc(NC(=S)N3CCOCC3)ccc21 | 7.76
